# Test results reported in PubChem BioAssay AID686978 (National Center for Advancing Translational Sciences (NCATS), 2013).
# Where “and” joins values, the source holds several entries; their conditions need not be identical. Equal values may be shown once. The campaign covered roughly 420,000 compounds. About 64,000 (15%) were called active. Inconclusive means that the source gave no clear call. Such entries were picked first, then a sample of the others. Calls follow the shape of the dose curve; as a rule, active = well fitted inhibition curve with a large enough effect; inconclusive = small, poorly fitted or top-dose-only effect; inactive = flat fitted curve, though single readings scatter. Potencies beside an inconclusive call are fits to weak or partial responses and may not hold up.
# Test: qHTS for Inhibitors of human tyrosyl-DNA phosphodiesterase 1 (TDP1): qHTS in cells in absence of CPT; also: nearly all actives have a fitted effect of over 55% in size
# Settings: DT40 Tdp1-/- hTDP1 cells, no CPT, ATP luminescence, 48 h; activity change, negative = growth inhibition: at 46.2 µM (top of the series) unless noted
# Method in brief: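 Growth of hTDP1-complemented DT40 Tdp1-knockout cells is measured by ATP luminescence after at least 48 hr compound exposure at 37 °C, with DMSO substituting for the 20 nM CPT used in the parallel screen.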
# % is scaled to controls: 0 for no effect and ±100 for the full control effect; potency is read from the fitted curve at half-maximal effect; tags tell the direction and shape of the fitted curve.
Compound,Potency,"activity change, negative = growth inhibition"
CC(=O)c1ccc2c(c1)c1ccccc1n2CC(C)C,inactive,–
Cc1ccc(C)c(OCCC(=O)OCC(=O)c2ccc3c(c2)NC(=O)CO3)c1,inactive,–
COc1ccc(/C(C)=N/NC(=O)CNC(=O)/C=C\c2ccco2)cc1,active: 9.2 µM,–
Cc1ccc(C)c(Cn2c(SCC(=O)NCc3ccccc3)nc3ccccc32)c1,active: 18.4 µM,–
COc1ccc(Oc2nc(SC)nc3ccccc23)cc1,"inconclusive: 11.6 µM [inhibitor, partial curve]",–
O=C(Cc1ccccc1)N[C@@H](Cc1ccccc1)c1nc2ccccc2[nH]1,active: 23.1 µM,–
CC(C)N(CCO)Cc1nc(C(c2ccccc2)c2ccccc2)no1,–,inconclusive: -39.3% [inhibitor]
CN(C)c1ccc(Cl)cc1N,inactive,–
COc1ccc(N2CCN(C(=O)c3ccc(COc4ccc5c(C)cc(=O)oc5c4)cc3)CC2)cc1,active: 16.4 µM,–
Cc1nc2cc(N=NC3=C(O)CCCC3=O)ccc2s1,inactive,–
COc1cc(CN2CCN(c3cccc(C)c3C)CC2)cc(OC)c1O,"inconclusive: 25.9 µM [inhibitor, single point]",–
Cc1cc(NC(=O)c2cccc(COc3ccc(Br)cc3)c2)no1,inactive,–
CCOc1ccccc1-n1nnnc1SCC(=O)O,inactive,–
CN(Cc1ccccc1)C(=O)c1ccc(CSc2nc3cccnc3n2Cc2ccccc2)cc1,"inconclusive: 29.1 µM [inhibitor, single point]",–
Fc1cccc(NCCc2c[nH]c3ccccc23)n1,"inconclusive: 9.2 µM [inhibitor, partial curve, poor fit]",–
Cc1cccc(N2CCN(C(=O)Cc3c(C(=O)O)c(C)cn3C)CC2C)c1 (centres undefined),inactive,–
CN(C)CCNC(=O)C(=O)Nc1ccc2c(c1)N(S(=O)(=O)c1cccs1)CCC2,active: 7.31 µM,–
COc1ccc(C2=NN(C(=O)CSc3nnnn3C)C(c3ccco3)C2)cc1 (centres undefined),"inconclusive: 20.6 µM [inhibitor, single point]",–
O=C(COc1ccccc1)Nc1nc(-c2cccs2)cs1,"inconclusive: 25.9 µM [inhibitor, single point]",–
Cc1cccc(C(=O)N2CCN(Cc3nc4sc5c(c4c(=O)[nH]3)CCCC5)CC2)c1,"inconclusive: 16.4 µM [inhibitor, partial curve]",–
O=C(C(NS(=O)(=O)c1cccs1)c1ccccc1)N1CCN(c2ccccc2F)CC1 (centres undefined),"inconclusive: 25.9 µM [inhibitor, partial curve]",–
Cc1nn(-c2ccccc2)c(N)c1C1(O)C(=O)N(C(C)C)c2ccccc21 (centres undefined),active: 8.2 µM,–
C/C(=N/Nc1nc(-c2ccccc2)c(CC(=O)O)s1)c1ccccc1,"inconclusive: 13 µM [inhibitor, partial curve]",–
O=S(=O)(NCC1CCCO1)c1ccccc1 (centres undefined),inactive,–
COc1ccc(Cl)cc1NC(=O)CN(C)C(=O)CSc1ccc2c(c1)OCCO2,inactive,–
Cc1ccc(C)c(Cn2nnc(C(=O)Nc3ccc4c(c3)OCCO4)c2N)c1,"inconclusive: 25.9 µM [inhibitor, single point]",–
COCCn1c(SCC(=O)NNC(=O)Cc2ccccc2)nc2ccccc2c1=O,inactive,–

Compound,Potency,"activity change, negative = growth inhibition"
CCN(CC)C(=O)C1=C(C)N(Cc2ccccc2)C(=O)C(CC(=O)NC2CCCC2)C1 (centres undefined),inactive,–
COc1ccc(N2CCN(C(=O)C3CCCN(S(=O)(=O)c4ccc5c(c4)oc(=O)n5C)C3)CC2)cc1 (centres undefined),active: 13 µM and active: 10.3 µM,–
O=C(COc1ccc(Br)cc1Cl)NC1CCN(Cc2ccccc2)CC1,"inconclusive: 29.1 µM [inhibitor, single point]",–
O=C(O)c1ccc(NS(=O)(=O)c2ccc(Cl)cc2)cc1,inactive,–
CCC(C)C(=O)Nc1nnc(SCC(=O)Nc2ccccc2F)s1 (centres undefined),"inconclusive: 29.1 µM [inhibitor, single point]",–
O=C(CC1CCCCC1)Nc1ccccc1-c1ccccc1,active: 20.6 µM,–
Cn1c(C(F)(F)F)nc2c(=O)oc3ccccc3c21,inactive,–
CCOC(=O)C1(CCCc2ccccc2)CCN(C(=O)CCn2cnnn2)CC1,"inconclusive: 29.1 µM [inhibitor, single point]",–
O=C(Nc1cccc(NC(=O)c2ccco2)n1)c1ccco1,"inconclusive: 0.206 µM [inhibitor, full curve]",–
Cc1cc(NC(=O)CCCC(=O)NCc2cccs2)no1,inactive,–
Fc1ccc(Nc2cccc3nccnc23)cc1,inactive,–
CCC(=O)NCCc1sc2nc(-c3ccc(OC)cc3)nn2c1C,"inconclusive: 9.2 µM [inhibitor, partial curve]",–
CC(=O)c1cn(CC(=O)Nc2ccccc2C)c2ccccc12,active: 6.51 µM,–
CCc1nc2ccc(C(=O)Nc3ccc(OC)c(OC)c3)cn2c1N(C)Cc1ccc(OC)cc1,"inconclusive: 29.1 µM [inhibitor, single point]",–
COC(=O)c1c(NC(=O)COc2ccc(C(C)C)cc2)sc2c1CCCC2,active: 23.1 µM,–
O=C1CCC(C(=O)Nc2cccc(S(=O)(=O)N3CCOCC3)c2)N1 (centres undefined),inactive,–
COc1ccccc1-c1noc2ncnc(Nc3cccc(C)c3)c12,"inconclusive: 29.1 µM [inhibitor, single point]",–
COc1ccccc1C(=O)NC(=O)COC(=O)c1cccc(NC(C)=O)c1,inactive,–
CCCc1c(-c2ccc(Cl)cc2)ncn1Cc1ccccc1OC,active: 20.6 µM,–
Cn1nnc2c(N3CCN(Cc4ccccc4)CC3)ncnc21,active: 15.8 µM,–
COc1ccccc1CCNC(=O)C1(c2cccs2)CCOCC1,"inconclusive: 29.1 µM [inhibitor, single point]",–
O=C(C[n+]1csc2ccccc21)c1ccccc1,"inconclusive: 25.1 µM [inhibitor, single point]",–
CCCCN(c1ccccc1)S(=O)(=O)c1cccc(C(=O)Nc2c(C)n(C)n(-c3ccccc3)c2=O)c1,"inconclusive: 8.2 µM [inhibitor, partial curve]",–
CCCCc1cc2ccccc2c(OCCN(C)C)n1,"inactive and inconclusive: 12.8 µM [inhibitor, single point]",–
COc1ccc(OC)c(NC(=O)c2nnn(CC(=O)Nc3ccc(C(C)C)cc3)c2N)c1,"inconclusive: 16.4 µM [inhibitor, single point]",–
Cc1ccc(OCC(=O)N/N=C2\CC(=O)CC(C)(C)C2)c(Br)c1,inactive,–
COc1ccc(Oc2cccc(Cl)c2CNC(=O)CCCC(=O)O)cc1,inactive,–

Compound,Potency,"activity change, negative = growth inhibition"
Cc1cccc(CSc2nc3ccncc3n2CC(=O)N(C)C2CCCCC2)c1,"inconclusive: 16.4 µM [inhibitor, single point]",–
Cc1ccc(-c2noc(CC(c3ccccc3)c3ccccc3)n2)cc1,inactive,–
C/C=C(/CC[C@@H](C)[C@H]1CC[C@H]2C3=CC[C@H]4[C@H](C)[C@@H](O)CC[C@]4(C)[C@H]3CC[C@]12C)C(C)C,inactive,–
COc1ccc(NC(=O)Cn2c(=O)oc3cc(S(=O)(=O)N4CCCC4)ccc32)cc1OC,"inconclusive: 16.4 µM [inhibitor, partial curve]",–
CCS(=O)(=O)c1ccc2oc(Nc3ccc(C(C)C)cc3)nc2c1,active: 23.1 µM,–
CN1C=CC(C(C(N)=O)c2ccccc2)c2ccccc21 (centres undefined),"inconclusive: 29.1 µM [inhibitor, single point]",–
COc1ccc(CCNC(=O)c2ccc3nc(CCc4ccccc4)oc3c2)cc1OC,inactive,–
Cc1ccnc(NC(=O)CCC2CCCCC2)c1,inactive,–
COc1ccc(C(=O)CSc2nnc(CNc3ccc(C)cc3C)o2)cc1,"inconclusive: 3.26 µM [inhibitor, full curve, poor fit]",–
O=S(=O)(c1ccccc1)N1CCN(C(=S)Nc2ccc(F)cc2)CC1,inactive,–
CC1(C)OC(=O)C2=C(C[C@@H](CCc3ccccc3)O[C@@H]2c2ccc(F)cc2)O1,active: 16.4 µM,–
COc1ccc(C(=O)NCC(c2cccs2)N2CCc3ccccc32)cc1OC (centres undefined),active: 20.6 µM,–
COc1ccc(OC)c(C(c2nnnn2Cc2ccco2)N2CCN(C)CC2)c1 (centres undefined),inactive,–
CCCCn1c(N)c(N(CCOC)C(=O)CCc2ccc(OC)cc2)c(=O)[nH]c1=O,inactive,–
CC1CCN(c2ccc(C(=O)OCC(=O)NCCN3C(=O)CSC3=O)cc2[N+](=O)[O-])CC1,"inconclusive: 18.4 µM [inhibitor, partial curve]",–
O=C1Nc2ccccc2/C1=C\c1cccn1-c1ccc(OC(F)(F)F)cc1,"inconclusive: 20.6 µM [inhibitor, partial curve]",–
COc1ccc(C(=O)N2CCN(C(C)=O)CC2)cc1S(=O)(=O)N1CCOCC1,inactive,–
COc1ccccc1C(=O)NCC(=O)NC(C)CCc1ccccc1 (centres undefined),inactive,–
CC(=O)N1CCC2(CC1)CCN(c1ccncc1)CC2,"inconclusive: 25.9 µM [inhibitor, single point]",–
CCC1CN(C(=O)N2CCC(C(=O)NCc3cccs3)CC2)c2ccccc2O1 (centres undefined),active: 20.6 µM,–
COc1ccc(S(=O)(=O)N(C)C[C@H]2OCc3cn(nn3)CCCC(=O)N([C@@H](C)CO)C[C@@H]2C)cc1,inactive,–
Cc1cc(NC(=O)c2cc(-c3cccc(OCC(C)C)c3)nc3ccccc23)no1,"inconclusive: 1.64 µM [inhibitor, full curve]",–
CC(=O)c1ccc(Oc2ncnc(N)c2[N+](=O)[O-])cc1,"inconclusive: 23.1 µM [inhibitor, partial curve]",–
CCN(CC)S(=O)(=O)c1ccc(N/N=C(\C)c2ccc(OC)cc2O)nc1,active: 29.1 µM,–
Cc1cccc(Cc2cnc(N3C(=N)SC(c4ccccc4)C3=O)s2)c1 (centres undefined),active: 25.9 µM,–
